The results in this text go back to PMC3262128.

Chains of the proteins cited; added tags and fusions are not shown. Lines headed by an entry give the natural chain unless they say otherwise; changes in a name come on top. A line that says so, or that is headed by a name, gives the form on record, which may keep a tag or linker. Residues count along the entry.
UniProt Q8IXW5: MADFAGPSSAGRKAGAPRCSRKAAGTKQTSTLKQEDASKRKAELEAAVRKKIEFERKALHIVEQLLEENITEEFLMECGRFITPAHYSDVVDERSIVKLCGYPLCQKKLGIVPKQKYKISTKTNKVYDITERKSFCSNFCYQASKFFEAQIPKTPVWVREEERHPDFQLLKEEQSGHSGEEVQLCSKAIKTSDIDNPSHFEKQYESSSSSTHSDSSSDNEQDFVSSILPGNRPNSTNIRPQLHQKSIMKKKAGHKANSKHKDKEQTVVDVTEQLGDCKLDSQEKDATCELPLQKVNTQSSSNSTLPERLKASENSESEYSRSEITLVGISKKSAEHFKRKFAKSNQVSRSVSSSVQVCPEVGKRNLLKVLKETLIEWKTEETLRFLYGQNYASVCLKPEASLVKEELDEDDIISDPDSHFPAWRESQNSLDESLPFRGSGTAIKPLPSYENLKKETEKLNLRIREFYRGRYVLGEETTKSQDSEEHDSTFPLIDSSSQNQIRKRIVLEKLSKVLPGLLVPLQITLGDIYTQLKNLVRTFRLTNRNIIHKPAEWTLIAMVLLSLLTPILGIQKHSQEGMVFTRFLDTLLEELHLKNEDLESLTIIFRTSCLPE
Flag-tagged RPAP2 N-terminal region (1–334): residues 1-334 of Q8IXW5
UniProt Q96HW7: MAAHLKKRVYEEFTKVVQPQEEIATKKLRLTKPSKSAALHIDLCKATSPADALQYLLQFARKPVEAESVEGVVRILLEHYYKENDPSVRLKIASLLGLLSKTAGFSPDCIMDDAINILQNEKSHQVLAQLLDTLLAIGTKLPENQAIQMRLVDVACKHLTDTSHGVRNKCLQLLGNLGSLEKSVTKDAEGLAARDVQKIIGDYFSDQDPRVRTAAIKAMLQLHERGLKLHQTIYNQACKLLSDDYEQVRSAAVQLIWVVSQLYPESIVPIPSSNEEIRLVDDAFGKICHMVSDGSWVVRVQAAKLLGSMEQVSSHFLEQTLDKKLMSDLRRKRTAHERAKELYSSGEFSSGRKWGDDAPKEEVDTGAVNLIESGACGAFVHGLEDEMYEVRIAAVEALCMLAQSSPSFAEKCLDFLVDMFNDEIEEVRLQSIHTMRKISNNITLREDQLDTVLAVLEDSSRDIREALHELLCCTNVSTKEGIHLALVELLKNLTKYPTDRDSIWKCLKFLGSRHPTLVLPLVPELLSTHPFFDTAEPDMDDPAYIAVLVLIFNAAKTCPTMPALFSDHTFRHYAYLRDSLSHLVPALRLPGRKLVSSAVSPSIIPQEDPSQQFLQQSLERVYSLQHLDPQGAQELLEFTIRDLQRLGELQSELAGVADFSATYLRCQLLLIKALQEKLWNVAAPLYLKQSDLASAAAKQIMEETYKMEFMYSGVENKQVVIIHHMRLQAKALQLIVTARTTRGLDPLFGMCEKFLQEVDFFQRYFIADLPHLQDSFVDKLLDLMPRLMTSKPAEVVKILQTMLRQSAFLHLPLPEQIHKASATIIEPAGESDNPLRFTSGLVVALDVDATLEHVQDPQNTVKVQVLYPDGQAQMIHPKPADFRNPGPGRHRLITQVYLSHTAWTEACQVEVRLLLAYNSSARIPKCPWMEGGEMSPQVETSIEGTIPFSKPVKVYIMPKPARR
UniProt Q6P9B9: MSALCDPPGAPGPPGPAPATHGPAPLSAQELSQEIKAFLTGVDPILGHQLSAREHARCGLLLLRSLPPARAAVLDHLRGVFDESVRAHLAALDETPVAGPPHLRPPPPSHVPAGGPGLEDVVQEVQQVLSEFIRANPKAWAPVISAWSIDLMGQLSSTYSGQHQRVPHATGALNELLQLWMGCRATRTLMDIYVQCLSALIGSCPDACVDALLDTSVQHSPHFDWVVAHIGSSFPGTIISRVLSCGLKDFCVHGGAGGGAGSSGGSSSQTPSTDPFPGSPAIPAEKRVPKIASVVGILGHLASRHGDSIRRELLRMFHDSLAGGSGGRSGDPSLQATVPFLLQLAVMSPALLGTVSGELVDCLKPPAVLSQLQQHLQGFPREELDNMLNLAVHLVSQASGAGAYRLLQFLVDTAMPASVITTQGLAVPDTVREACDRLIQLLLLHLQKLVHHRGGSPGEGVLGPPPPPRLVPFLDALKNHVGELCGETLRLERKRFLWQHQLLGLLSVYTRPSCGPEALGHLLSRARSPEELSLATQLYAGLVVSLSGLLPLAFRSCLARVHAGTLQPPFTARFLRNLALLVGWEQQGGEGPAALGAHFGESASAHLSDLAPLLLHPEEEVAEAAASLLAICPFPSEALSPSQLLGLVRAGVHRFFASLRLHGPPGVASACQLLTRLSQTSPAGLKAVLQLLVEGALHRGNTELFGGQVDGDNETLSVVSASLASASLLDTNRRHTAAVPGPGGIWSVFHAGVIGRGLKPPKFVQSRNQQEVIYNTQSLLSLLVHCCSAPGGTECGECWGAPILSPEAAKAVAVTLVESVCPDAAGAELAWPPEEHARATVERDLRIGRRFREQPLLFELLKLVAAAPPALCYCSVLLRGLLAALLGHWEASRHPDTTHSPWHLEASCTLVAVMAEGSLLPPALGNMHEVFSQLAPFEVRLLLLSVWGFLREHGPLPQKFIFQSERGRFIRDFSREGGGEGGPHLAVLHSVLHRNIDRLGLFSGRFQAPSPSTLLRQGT
UniProt Q9UL03: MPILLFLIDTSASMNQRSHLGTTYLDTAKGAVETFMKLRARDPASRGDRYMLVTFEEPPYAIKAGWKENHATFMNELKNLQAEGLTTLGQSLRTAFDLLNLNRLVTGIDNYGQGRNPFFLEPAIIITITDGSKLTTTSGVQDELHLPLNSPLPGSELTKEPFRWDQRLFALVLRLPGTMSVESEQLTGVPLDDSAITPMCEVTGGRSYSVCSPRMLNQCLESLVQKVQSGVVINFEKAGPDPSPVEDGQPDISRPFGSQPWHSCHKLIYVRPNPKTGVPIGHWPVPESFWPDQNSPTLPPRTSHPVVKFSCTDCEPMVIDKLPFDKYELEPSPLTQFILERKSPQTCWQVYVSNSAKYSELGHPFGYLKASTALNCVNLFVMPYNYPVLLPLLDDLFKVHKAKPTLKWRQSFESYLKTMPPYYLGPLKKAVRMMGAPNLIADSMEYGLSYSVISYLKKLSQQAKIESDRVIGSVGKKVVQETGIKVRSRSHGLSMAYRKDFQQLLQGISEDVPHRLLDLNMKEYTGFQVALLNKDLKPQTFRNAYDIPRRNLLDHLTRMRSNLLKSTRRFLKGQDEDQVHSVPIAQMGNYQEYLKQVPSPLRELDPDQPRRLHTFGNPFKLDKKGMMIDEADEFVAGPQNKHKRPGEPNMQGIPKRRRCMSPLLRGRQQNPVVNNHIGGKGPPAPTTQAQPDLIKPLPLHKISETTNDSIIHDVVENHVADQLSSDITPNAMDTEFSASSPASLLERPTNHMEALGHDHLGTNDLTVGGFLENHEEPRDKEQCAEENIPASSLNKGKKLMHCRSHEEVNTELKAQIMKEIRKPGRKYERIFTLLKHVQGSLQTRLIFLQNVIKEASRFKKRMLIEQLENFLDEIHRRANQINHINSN
UniProt Q9NVH2: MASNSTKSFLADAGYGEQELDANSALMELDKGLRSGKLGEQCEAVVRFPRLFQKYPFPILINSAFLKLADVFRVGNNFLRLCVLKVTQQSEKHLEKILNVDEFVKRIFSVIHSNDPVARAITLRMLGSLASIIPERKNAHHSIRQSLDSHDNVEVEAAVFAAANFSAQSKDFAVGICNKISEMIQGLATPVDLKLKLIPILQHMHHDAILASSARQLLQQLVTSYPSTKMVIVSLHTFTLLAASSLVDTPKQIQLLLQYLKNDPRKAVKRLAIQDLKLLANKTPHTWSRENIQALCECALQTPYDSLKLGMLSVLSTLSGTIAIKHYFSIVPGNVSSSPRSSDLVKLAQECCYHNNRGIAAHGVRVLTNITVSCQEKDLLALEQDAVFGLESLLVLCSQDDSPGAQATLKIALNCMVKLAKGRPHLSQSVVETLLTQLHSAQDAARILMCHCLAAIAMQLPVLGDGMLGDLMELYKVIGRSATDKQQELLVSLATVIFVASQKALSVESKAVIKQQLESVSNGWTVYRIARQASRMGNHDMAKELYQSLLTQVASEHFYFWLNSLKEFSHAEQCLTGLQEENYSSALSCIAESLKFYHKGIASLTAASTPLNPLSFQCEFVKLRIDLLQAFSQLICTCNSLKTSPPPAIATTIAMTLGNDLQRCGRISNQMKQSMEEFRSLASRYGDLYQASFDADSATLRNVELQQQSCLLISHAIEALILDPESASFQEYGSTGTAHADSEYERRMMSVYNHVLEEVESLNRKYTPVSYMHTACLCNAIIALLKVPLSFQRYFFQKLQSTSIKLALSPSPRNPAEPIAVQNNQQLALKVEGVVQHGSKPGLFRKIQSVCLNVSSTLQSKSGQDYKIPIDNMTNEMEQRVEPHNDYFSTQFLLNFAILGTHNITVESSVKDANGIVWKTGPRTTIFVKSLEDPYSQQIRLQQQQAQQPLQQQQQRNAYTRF
UniProt Q5TA45: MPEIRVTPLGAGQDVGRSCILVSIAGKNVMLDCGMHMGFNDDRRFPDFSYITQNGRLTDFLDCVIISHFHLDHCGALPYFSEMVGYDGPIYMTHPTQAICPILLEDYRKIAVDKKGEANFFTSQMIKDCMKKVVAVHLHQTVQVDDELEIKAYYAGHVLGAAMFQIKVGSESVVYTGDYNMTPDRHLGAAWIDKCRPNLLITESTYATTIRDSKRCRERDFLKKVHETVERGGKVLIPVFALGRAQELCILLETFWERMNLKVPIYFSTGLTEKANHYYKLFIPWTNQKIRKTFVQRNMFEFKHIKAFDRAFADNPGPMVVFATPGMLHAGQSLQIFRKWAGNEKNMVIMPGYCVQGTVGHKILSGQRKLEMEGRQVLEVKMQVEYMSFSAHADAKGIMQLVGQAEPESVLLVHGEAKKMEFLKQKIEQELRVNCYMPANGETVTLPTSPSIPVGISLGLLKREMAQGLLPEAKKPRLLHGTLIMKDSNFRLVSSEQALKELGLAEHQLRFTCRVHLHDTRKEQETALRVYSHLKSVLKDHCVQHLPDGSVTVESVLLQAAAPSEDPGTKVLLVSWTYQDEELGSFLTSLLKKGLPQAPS

In assay [1] the target is Flag-tagged RPAP2 (RNA Pol II-associated protein 2) (human) (UniProt Q8IXW5). As to the kind of experiment: co-sedimentation; F-RPAP2 eluate from the Flag IP on a 5%–45% glycerol gradient (50 mM Tris-HCl 7.5, 200 mM NaCl, 1 mM EDTA, 1 mM DTT), 14 hr at 41000 rpm, SW41 rotor, 0.5 ml fractions; western blot.
Assay [2] has the same target. As to the kind of experiment: co-IP; Flag-tagged RPAP2 proteins expressed in HeLa cells; sonicated lysate in NET-2 buffer (200 mM NaCl, 0.1% NP-40, 50 mM Tris-HCl pH 7.5); anti-Flag M2 affinity gel, six washes, elution with Flag peptide; western blot.
Assay [3] addresses Flag-tagged RPAP2 M1 (C100A-C105A) (human) (UniProt Q8IXW5). Described as above.
The target in assay [4] is Flag-tagged RPAP2 M2 (C136A-C140A) (human) (UniProt Q8IXW5). The assay is described as above.
Assay [5] deals with Flag-tagged RPAP2 N-terminal region (1–334) (human) (UniProt Q8IXW5). The description is as above.
Assay [6] deals with endogenous RPAP2 (human (endogenous in HeLa)) (UniProt Q8IXW5). As to the kind of experiment: co-sedimentation; HeLa cell extract on a 5%–45% glycerol gradient; endogenous RPAP2 and Int11 followed by western blot.
In assay [7] the target is T1, biotinylated CTD peptide (S7A)×2, not phosphorylated.
T1 sequence (peptide, biotin on the N-terminus): YSPTSPAYSPTSPA
As to the kind of experiment: pull-down; 10 μg N-terminally biotinylated CTD peptide on streptavidin-coated Sepharose beads in 0.1 M KCl HEGN; 1 μg recombinant RPAP2 added, 4°C for 3 hr; five washes with 0.3 M KCl HEGN; western blot; both purified.

No constants are given. Whether binding was seen depends on the method and setting. For some assays here: In cells and extracts the contact can be indirect. Some entries that bind do so weakly or less than the wild type.

As to “Int4 subunit of the Integrator complex (from UniProt Q96HW7 1-963)”, the binding result in assay [1] is recorded as “binds”; in assay [2] it was “binds”; in assay [3], “no binding”; in assay [4] it was “no binding”; in assay [5], “binds”.

Regarding “Int5 subunit of the Integrator complex (from UniProt Q6P9B9 1-1019)”, the binding result in assay [1] and in assay [2] was “binds” each time.

For the substance “Int6 subunit of the Integrator complex (from UniProt Q9UL03 1-887)”, the binding result in assay [1] and in assay [2] was “binds” throughout.

For the substance “Int7 subunit of the Integrator complex (from UniProt Q9NVH2 1-962)”, the binding result in assay [1] and in assay [2] was “binds” in each case.

With “Int11, the catalytic subunit of the Integrator complex (from UniProt Q5TA45 1-600)”, the binding entry in assay [6] and in assay [2] was “no binding” throughout.

“recombinant GST-RPAP2 (from UniProt Q8IXW5-1 1-612)”: the binding result in assay [7] was “no binding (tested: 1 μg of recombinant RPAP2 protein)”.
